Results as given in the supplement of paper PMC10126150.
Values marked as one replicate rest on one cluster of the flow cell; about a third of the high ones do not repeat.

System: ATP
Test: switch fluorescence ratio, 500 uM ATP over buffer (Cy3 cluster intensity, sum of 5 cycles each) (fold (ratio)); higher = stronger signal-on switching upon ATP binding; sequences stand for … in TCGTCGGCAGCGTCAGATGTGTATAAGAGACAGTTTTTTTTTTTTTTTTTTTTTTTTT…TC
Details: aptamer strand: ATP DNA aptamer (quencher-CACCTGGGGGAGTATTGCGGAGGAAGG + anchor), 100 nM annealed; ATP concentration: 500 uM; one replicate
Summary of the method: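 Cy3-labelled switching-strand clusters on a modified Illumina MiSeq flow-cell were annealed to 100 nM quencher-labelled ATP aptamer, imaged in selection buffer, then imaged after 15 min with 500 uM ATP at 22 °C. Five buffer/ATP cycles ran, with NaOH stripping and re-annealing between them. The fluorescence ratio is summed target-cycle over summed buffer-cycle Cy3 intensity per cluster, averaged per switch-domain sequence. Clusters outside 100-1000 RFU were excluded.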
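Also: ATP exposure 15 min at 22 °C before imaging.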

AGCGCGCGGA
switch fluorescence ratio: 1.02

GATAACCATT
switch fluorescence ratio: 0.985

TCCGTCCGCT
switch fluorescence ratio: 3.56

TCCATTATTT
switch fluorescence ratio: 1.02

ATGGGAACCC
switch fluorescence ratio: 1

AAAAGTGAGA
switch fluorescence ratio: 0.978

TGGATATCGT
switch fluorescence ratio: 0.99

ACCTGCAACT
switch fluorescence ratio: 1.35

GATGTGAGCG
switch fluorescence ratio: 1.02

GGATAAGAGC
switch fluorescence ratio: 1.07

TAACTTAGGC
switch fluorescence ratio: 1.04

CTAGGTACAG
switch fluorescence ratio: 1.04

TACTCTACCA
switch fluorescence ratio: 1.35

CAATGGTGCC
switch fluorescence ratio: 1

TCGAATTATG
switch fluorescence ratio: 1

ATCAGTCACG
switch fluorescence ratio: 1.01

CGTAACTTCA
switch fluorescence ratio: 1.06

GTGAACACCG
switch fluorescence ratio: 0.994

TCCTGTTGGG
switch fluorescence ratio: 0.984

TGTACATATA
switch fluorescence ratio: 0.985

TATCTTGTTA
switch fluorescence ratio: 0.999

AGTCACGCAT
switch fluorescence ratio: 1.28

AAACTCGTAT
switch fluorescence ratio: 0.983

GAGTATTGTC
switch fluorescence ratio: 1.04

TTACGCTTT
switch fluorescence ratio: 1.04

AACGGCTGCC
switch fluorescence ratio: 0.974

ACCGTGTCCA
switch fluorescence ratio: 0.97

CAATGATAAC
switch fluorescence ratio: 1.04

CGGAGCACGG
switch fluorescence ratio: 2.65

CTGGGCAGGC
switch fluorescence ratio: 0.803

AAAGGGCTAA
switch fluorescence ratio: 0.986

GGCGGTGTGT
switch fluorescence ratio: 0.998

TTAAGCCCAC
switch fluorescence ratio: 1.16

GTATATAATT
switch fluorescence ratio: 1.02

CAATAGTGTA
switch fluorescence ratio: 0.974

CCCGTGCCTC
switch fluorescence ratio: 1.05

GAGCTATCTC
switch fluorescence ratio: 1.12

GCAACTTCGT
switch fluorescence ratio: 1.01

ATGTCATCAT
switch fluorescence ratio: 0.997

GTGGAACGGT
switch fluorescence ratio: 0.982

CTTGCATGGT
switch fluorescence ratio: 1.02

TGCGATGTAA
switch fluorescence ratio: 1.02

AGATTTCGCA
switch fluorescence ratio: 0.976

CTGCTCTGAG
switch fluorescence ratio: 0.984

TAAGTGGTAC
switch fluorescence ratio: 1.09

ACATTTCGGC
switch fluorescence ratio: 1.01

TTAAGGCCTA
switch fluorescence ratio: 1.01

TCCGGTGTGC
switch fluorescence ratio: 1.45

TTTATTGTTC
switch fluorescence ratio: 1.05

CATTGAATGT
switch fluorescence ratio: 0.995

ATGTATGGC
switch fluorescence ratio: 1.05

ACGGAAATCG
switch fluorescence ratio: 1.05

CCTTATCTCT
switch fluorescence ratio: 1.05

TGGTCAGGCC
switch fluorescence ratio: 0.994

AGTTGATCAG
switch fluorescence ratio: 0.954

GAGAATGAGT
switch fluorescence ratio: 0.998

TCGAGGACAT
switch fluorescence ratio: 1.07

TCTACTACAA
switch fluorescence ratio: 1.11

GCCAAAGATA
switch fluorescence ratio: 0.979

TTACCATGTC
switch fluorescence ratio: 1.09

TATTTCAGCG
switch fluorescence ratio: 1

ACCGTCTACT
switch fluorescence ratio: 1.08

GGATGGCTAA
switch fluorescence ratio: 0.985

ATTCGTGTA
switch fluorescence ratio: 0.985

ACACCAGGCT
switch fluorescence ratio: 1.15

TTTCGGTGCG
switch fluorescence ratio: 0.999

CCGCTCAGTA
switch fluorescence ratio: 1.4

AGTCATATCC
switch fluorescence ratio: 1.01

AATTGTTAAA
switch fluorescence ratio: 1

TTGAATCTTC
switch fluorescence ratio: 0.998

GGGTCACTCG
switch fluorescence ratio: 1.04

AACTCCCTG
switch fluorescence ratio: 1.15

TTATACCCGT
switch fluorescence ratio: 1.01

AACTAAAGCC
switch fluorescence ratio: 1.02

TGGGTCTAG
switch fluorescence ratio: 1

GCGCACAATC
switch fluorescence ratio: 1.16

TCTAGGAATC
switch fluorescence ratio: 1.08

GAGCTTCGAA
switch fluorescence ratio: 0.981

TGTGGCTGAT
switch fluorescence ratio: 0.983

TATCTCCGTC
switch fluorescence ratio: 1.23

GCACTTTG
switch fluorescence ratio: 1.02

GCCCCTTTGC
switch fluorescence ratio: 1

TAATCTCTAG
switch fluorescence ratio: 1.03

CTGTTGAGCA
switch fluorescence ratio: 1.07

GAAACTTCAC
switch fluorescence ratio: 1.15

CGAAGACGAT
switch fluorescence ratio: 0.989

GCAACGGTAA
switch fluorescence ratio: 1.1

CAGGTTGCAT
switch fluorescence ratio: 0.984

GGCAATTGTG
switch fluorescence ratio: 0.972

TGCCGTAC
switch fluorescence ratio: 1.02

GAGTAGGTAC
switch fluorescence ratio: 1.2

TTAGACGTAC
switch fluorescence ratio: 1.71

CGCACGGATA
switch fluorescence ratio: 1.1

AGGGTAGGT
switch fluorescence ratio: 0.968

CCGAGCCG
switch fluorescence ratio: 1.48

ACTCTTTGAG
switch fluorescence ratio: 0.997

GGTCACGCCA
switch fluorescence ratio: 1.01

GCATTGGCAA
switch fluorescence ratio: 1.01

TCTCGAAGAT
switch fluorescence ratio: 1

GGTGGTATGG
switch fluorescence ratio: 0.984

TACTAGTAAG
switch fluorescence ratio: 1.03

CCATAGTTG
switch fluorescence ratio: 1.03

CGCTTTTCAG
switch fluorescence ratio: 0.998

AACTCTTTC
switch fluorescence ratio: 1.14

GGACGAATTA
switch fluorescence ratio: 1.04

GCGTTGATAC
switch fluorescence ratio: 2.74

TGAACCGGCA
switch fluorescence ratio: 1.1

CGGGGGACTC
switch fluorescence ratio: 1.01

CGGAAGAAGT
switch fluorescence ratio: 0.986

GCGTCACTAG
switch fluorescence ratio: 1.03

CATGTGAATT
switch fluorescence ratio: 0.953

GAAATCTGAG
switch fluorescence ratio: 1.22

AATAATCTCT
switch fluorescence ratio: 0.967

GTGCCATCGT
switch fluorescence ratio: 1.05

TCGCCCGTT
switch fluorescence ratio: 1.04

TAATCAAAAT
switch fluorescence ratio: 1.04

GTTAATGTTA
switch fluorescence ratio: 0.969

TAACCTTCT
switch fluorescence ratio: 2.9

AAATGGTGCG
switch fluorescence ratio: 0.985

AGGAGGTTGC
switch fluorescence ratio: 1.03

CATAGGGGT
switch fluorescence ratio: 1

TAGCACGAGA
switch fluorescence ratio: 1.05

CAAAAATGGT
switch fluorescence ratio: 1.04

CGTCGAGTGG
switch fluorescence ratio: 1.03

GAATGCGGCC
switch fluorescence ratio: 1.06

GAAAATGTCC
switch fluorescence ratio: 0.919

TGTAACTTAC
switch fluorescence ratio: 1.25

AAGTTAGGGC
switch fluorescence ratio: 1.06

TTGGCGATAG
switch fluorescence ratio: 1.02

GTGTGGATGT
switch fluorescence ratio: 0.985

AGCACCTCTT
switch fluorescence ratio: 1.03

GGTCCCGAGC
switch fluorescence ratio: 1.07

TACTTTTGTA
switch fluorescence ratio: 0.964

AATGTTTAGG
switch fluorescence ratio: 0.992

GTGTAGTGTT
switch fluorescence ratio: 0.992

ATCCAGTTAA
switch fluorescence ratio: 0.989

ATCCAGGGGC
switch fluorescence ratio: 2.01

AATCATGTCC
switch fluorescence ratio: 0.992

CGAGTTGCGA
switch fluorescence ratio: 1.01

ACAAGCGGCC
switch fluorescence ratio: 1.05

ATTCTTATGA
switch fluorescence ratio: 0.966

GAGCTCCTCT
switch fluorescence ratio: 1.01

ACGTCTACCC
switch fluorescence ratio: 1.39

TTCTAATGTG
switch fluorescence ratio: 0.993

GTATGCTGAA
switch fluorescence ratio: 0.986

GGTTAACCGT
switch fluorescence ratio: 0.98

CAAGGGTCG
switch fluorescence ratio: 0.968

TTCCTCTTGT
switch fluorescence ratio: 1.02

TGCTATTAAG
switch fluorescence ratio: 1.01

ACGAGGTTGC
switch fluorescence ratio: 1.03

AACTAAGTCA
switch fluorescence ratio: 0.959

TTATAAATGT
switch fluorescence ratio: 0.973

TTGAATAATA
switch fluorescence ratio: 1.01

TTCATTCAG
switch fluorescence ratio: 0.966

AAAACGGTG
switch fluorescence ratio: 1.09

ATAGGTCG
switch fluorescence ratio: 1.01

TTAACGAGGG
switch fluorescence ratio: 1

CGAGGGACAG
switch fluorescence ratio: 1.05
